# According to the antibiotic and cytotoxicity screens of Wong et al. (2023):
# The other results are listed elsewhere or left out.
# Assays:
# [1] = system: HSkMC (human skeletal muscle cells); test: cytotoxicity call (relative viability < 0.9); conditions: 10 µM
# [2] = system: HepG2; test: cytotoxicity call (relative viability < 0.9); conditions: 10 µM
# [3] = system: S. aureus RN4220; test: growth inhibition call (relative growth <= 0.2); conditions: 50 µM
SMILES,cytotoxicity call [1],cytotoxicity call [2],growth inhibition call [3]
O=C(O)CNC(=O)c1cc(=O)[nH]c(=O)[nH]1,inactive,inactive,inactive
Cc1cc(C(=O)Nc2cccc3c2O[C@H](CN(C)Cc2ccccc2)[C@H](C)CN([C@@H](C)CO)C3=O)n(C)n1,inactive,inactive,inactive
C[C@@H]1CCCCO[C@H](CN(C)S(=O)(=O)c2ccccc2)[C@@H](C)CN([C@H](C)CO)C(=O)c2cc(NC(=O)Nc3ccc4c(c3)OCO4)ccc2O1,inactive,inactive,inactive
C[C@@H]1CN([C@H](C)CO)C(=O)c2cccc(NC(=O)c3ccncc3)c2O[C@@H]1CN(C)Cc1ccc2c(c1)OCO2,inactive,inactive,inactive
C[C@H]1CN([C@@H](C)CO)C(=O)c2cc(Br)cnc2O[C@H]1CN(C)C(=O)c1ccc2c(c1)OCO2,inactive,inactive,inactive
Cc1ccc(-c2ccc3c(c2)O[C@@H](CN(C)C(=O)Nc2ccc(C(F)(F)F)cc2)[C@H](C)CN([C@H](C)CO)S3(=O)=O)cc1,active,inactive,inactive
COc1ccc(NC(=O)N(C)C[C@H]2Oc3ccc(NC(=O)CCN4CCOCC4)cc3C(=O)N([C@@H](C)CO)C[C@H]2C)cc1,inactive,inactive,inactive
CC(=O)N(C)C[C@H]1Oc2ncc(C#C[C@H](C)O)cc2C(=O)N([C@H](C)CO)C[C@@H]1C,inactive,inactive,inactive
CC1CCc2cc(F)cc3c(=O)c(C(=O)O)cn1c23 (stereo not given),inactive,inactive,active
Cc1onc(NS(=O)(=O)c2ccccc2-c2ccc(-c3ncco3)cc2CN(C)C(=O)CC(C)(C)C)c1C,inactive,inactive,inactive
